# Experimental data: PubChem BioAssay AID886 (National Center for Advancing Translational Sciences (NCATS), 2007)
# The whole screen tested about 73,000 compounds, of which about 2,500 (3.4%) were called active. The inconclusive results got no clear call from the source; some entries with a clear call stand among them for comparison. The call rests on the fitted dose curve; in most records, active means well fitted inhibition curve with a large enough effect; inconclusive means small, poorly fitted or top-dose-only effect; inactive means no such curve, though single readings can be large or run the other way. Where the call is inconclusive, the potency comes from a doubtful curve fit.
# Biological target: 3-hydroxyacyl-CoA dehydrogenase type-2 (Homo sapiens) (UniProt Q99714)
# Chain of UniProt Q99714 (Q99714 whole entry, looked up): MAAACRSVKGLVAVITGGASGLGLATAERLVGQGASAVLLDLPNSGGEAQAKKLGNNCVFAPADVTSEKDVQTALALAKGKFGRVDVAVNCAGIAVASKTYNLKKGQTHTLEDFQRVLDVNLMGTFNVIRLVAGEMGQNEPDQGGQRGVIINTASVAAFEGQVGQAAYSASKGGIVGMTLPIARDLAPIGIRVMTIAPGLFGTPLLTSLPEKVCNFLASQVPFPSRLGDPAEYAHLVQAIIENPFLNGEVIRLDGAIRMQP
# Chain of UniProt Q99714 (Q99714 whole entry, looked up): as above
# Test: qHTS Assay for Inhibitors of HADH2 (Hydroxyacyl-Coenzyme A Dehydrogenase, Type II); further: nearly all actives have a fitted effect of over 60% in size
# Settings: recombinant HADH2, NADH fluorescence, beta-hydroxybutyryl-CoA; activity change, negative = inhibition: at 57.1 µM (top of the series)
# In short: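 His-tagged recombinant enzyme from E. coli, 20 nM, preincubated 15 min RT with compound; reaction started with 1 mM NAD+ and 90 uM beta-hydroxybutyryl-CoA in 100 mM Tris-HCl pH 9.0. NADH fluorescence (ex 360/em 450) read over 4 min; last-minus-first difference.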
# On the % scale 0 is the no-effect control and ±100 the full control effect; potency means the concentration at half of the fitted maximal effect; tags describe the fitted curve by direction and shape.
Structure (SMILES),Potency,"activity change, negative = inhibition"
O=C(O)c1ccc2[nH]c3c(c2c1)CSCC3,"inconclusive: 2.51 µM [inhibitor, full curve]",
CCN(CC)c1ccc(NC(=O)c2cccc(OC)c2)c(C)c1,"inconclusive: 12.6 µM [inhibitor, partial curve]",
CC(C)C[C@@H](CC(=O)N[C@@H](CCCN)CC(=O)N[C@@H]1CCNC[C@H]1C(=O)N[C@H](CC(=O)N[C@@H](CCC(=O)O)CC(=O)O)CC(C)C)NC(=O)[C@@H]1CNCC[C@H]1N,inactive,
COc1ccc(CCNS(=O)(=O)c2cn(C)c(=O)n(C)c2=O)cc1OC,"inconclusive: 15.8 µM [inhibitor, partial curve]",
Cc1ccc(-n2nc(C)c3c2OC(N)=C(C#N)C3c2ccoc2)cc1 (stereo not drawn),"inconclusive: 15.8 µM [inhibitor, single point]",
O=C(c1cc(C(F)(F)F)cc(C(F)(F)F)c1)N1CCC2(CC1)CCN(c1ccccn1)CC2,inactive,
COc1cc(C(Nc2ccccn2)c2ccc3ccc(C)nc3c2O)cc(OC)c1O (stereo not drawn),"inconclusive: 0.794 µM [inhibitor, partial curve]",
CC(C)(C)c1csc(NC(=O)Cn2c(=O)oc3ccccc32)n1,active: 15.8 µM,
C/C(=N\O)C(=O)NCCN1CCCCC1,inactive,
C#CCCCO/N=C1/C[C@@H](O)[C@@H](O)[C@@H]2[C@H]3C(=O)N(c4ccc(F)cc4F)C(=O)[C@@H]3CC[C@H]12,,inactive: 6.91% [at 11.4 µM]
COc1ccc(C2C(C(N)=O)=C(C)Nc3nc(-c4ccccc4Cl)nn32)c(OC)c1 (stereo not drawn),inactive,
CN1CCCc2cc(C#N)c(=O)[nH]c21,active: 3.16 µM,
Cc1cc(OCC(=O)N2CCOCC2)cc2oc(=O)c3ccccc3c12,active: 3.98 µM,
COc1ccccc1-c1ccc(C(=O)O)o1,active: 25.1 µM,
Cc1cc(N=CC2=C(O)CCCC2=O)no1,"inconclusive: 20 µM [inhibitor, partial curve]",
N#Cc1nc(Cc2cccc3ccccc23)oc1N1CCOCC1,inactive,
O=C(NCC1CCCO1)c1cc2ccccc2[nH]1 (stereo not drawn),"inconclusive: 31.6 µM [inhibitor, single point]",
O=C(O)CCNc1ccc2c(c1)OCCO2,"inconclusive: 0.0158 µM [inhibitor, partial curve]",
FC(F)Sc1ccc(Nc2ncnc3nc[nH]c23)cc1,"inconclusive: 3.16 µM [inhibitor, full curve]",
Cc1ccc(Cn2c(C)nc3c(c2=O)c2nc4ccccc4nc2n3Cc2ccco2)cc1,"inconclusive: 0.794 µM [inhibitor, full curve]",
CC1(C)OC(C(O)(c2cc(C(F)(F)F)cc(C(F)(F)F)c2)c2cc(C(F)(F)F)cc(C(F)(F)F)c2)C(C(O)(c2cc(C(F)(F)F)cc(C(F)(F)F)c2)c2cc(C(F)(F)F)cc(C(F)(F)F)c2)O1 (stereo not drawn),,inactive: -1.87% [at 11.4 µM]
CC1=C(C#N)C(C)C2=C(CC(C)(C)CC2=O)N1 (stereo not drawn),"inconclusive: 39.8 µM [inhibitor, single point]",
Cc1cccc(-c2c3c(=O)n(C)c(=O)n(C)c3c3nnc4ccccc4n23)c1,"inconclusive: 6.31 µM [inhibitor, single point]",
Cc1nc2sccn2c(=O)c1CCN1CCC(=C(c2ccccc2)c2ccc(F)cc2)CC1,"inconclusive: 39.8 µM [inhibitor, single point]",
CC1=C(CC(=O)O)c2cc(F)ccc2/C1=C\c1ccc(S(C)(=O)=O)cc1,"inconclusive: 31.6 µM [inhibitor, single point]",

Structure (SMILES),Potency,"activity change, negative = inhibition"
COc1ccc(C(=O)Nc2cc(Cl)ccc2Cl)c(OC)n1,"inconclusive: 20 µM [inhibitor, partial curve]",
CC(C)n1c(CCC(=O)O)ccc1-c1ccccc1,inactive,
O=C(Cc1coc2cc3c(cc12)CCC3)OCc1cc(=O)n2c(n1)sc1ccccc12,"inconclusive: 39.8 µM [inhibitor, single point]",
Nc1nc(-c2ccco2)cs1,active: 7.94 µM,
CC(C)c1cc(Nc2cccc(O)c2)cc(C(C)C)c1O,active: 15.8 µM,
CC(=O)Nc1c(C)cc(OCC(=O)O)cc1C,"inconclusive: 3.98 µM [inhibitor, single point]",
CC1N=C2c3ccccc3N=C(SCc3cc(=O)n4ccccc4n3)N2C1=O (stereo not drawn),inactive,
COc1ccc(C(=O)N2CCN(c3nc4cc(C)ccc4cc3C#N)CC2)c(OC)c1,inactive,
CCOC(=O)/C(C#N)=C1/C=CN(C)C(C)=N1,inactive,
O=C(c1cccc(Cl)c1)N1CCN(C(=O)c2ccco2)CC1,inactive,
Cc1nc2c(C(=O)NCc3ccc4c(c3)OCO4)c[nH]n2c(=O)c1Cl,"inconclusive: 39.8 µM [inhibitor, single point]",
Cc1ccc(S(=O)(=O)Nc2ccc3oc(=O)sc3c2)c(C)c1,active: 12.6 µM,
O=C(c1cc(-c2ccco2)nn1-c1cccc(Cl)c1)N1CCCCC1,"inconclusive: 39.8 µM [inhibitor, single point]",
c1csc(CNc2nc(-c3ccoc3)nc3ccccc23)c1,active: 15.8 µM,
c1coc(-c2nc(-c3ccco3)c(-c3ccco3)nc2-c2ccco2)c1,active: 5.01 µM,
O=S(=O)(c1ccc(C2=CSC3=NCCN23)cc1)N1CCOCC1,"inconclusive: 25.1 µM [inhibitor, partial curve]",
COC(=O)Nc1sc2c(c1C(=O)NCc1ccco1)CCCC2,"inconclusive: 31.6 µM [inhibitor, single point]",
CCOc1ccccc1C1NC(=O)NC(C)=C1C(=O)OC1CCCC1C (stereo not drawn),"inconclusive: 10 µM [inhibitor, partial curve, poor fit]",
Cc1cc2nc(SC(C)C(=O)O)[nH]c2cc1C (stereo not drawn),"inconclusive: 3.98 µM [inhibitor, single point]",
Cc1cc(N2CCN(C(=O)c3ccco3)CC2)n2nc(C)c(-c3ccc(Cl)cc3)c2n1,"inconclusive: 3.98 µM [inhibitor, single point]",
CC(C)CSC[C@@H]1O[C@H](n2cnc3c(N)nccc32)[C@H](O)[C@@H]1O,,inactive: 7.39% [at 11.4 µM]
O=C(O)C1C2C=CC(O2)C1C(=O)Nc1ccc(S(=O)(=O)N2CCc3ccccc32)cc1 (stereo not drawn),"inconclusive: 10 µM [inhibitor, partial curve, poor fit]",
COC(=O)CSc1nc2ccccc2nc1SCC(=O)OC,"inconclusive: 25.1 µM [inhibitor, partial curve]",
Cn1c2ccc(CC(=O)O)cc2c2cc(CC(=O)O)ccc21,inactive,
CC(C)Cn1c(-c2ccc(F)cc2)n[nH]c1=S,"inconclusive: 25.1 µM [inhibitor, partial curve]",

Structure (SMILES),Potency,"activity change, negative = inhibition"
COc1ccc(-c2ccc(-c3noc(-c4ccccc4)n3)c(OC)n2)cc1,"inconclusive: 0.794 µM [inhibitor, full curve]",
Clc1ccccc1-c1cncnc1NCc1cccs1,"inconclusive: 12.6 µM [inhibitor, partial curve]",
C[C@@H](CN1c2ccccc2Sc2ccccc21)N(C)C,"inconclusive: 15.8 µM [inhibitor, partial curve]",
Cc1cc2c3nonc3ccc2n1-c1ccccc1,"inconclusive: 5.01 µM [inhibitor, single point]",
Cc1[nH]c(N)nc(=S)c1CCC(=O)O,"inconclusive: 3.16 µM [inhibitor, single point]",
Cc1ccc(CNc2oc(-c3ccco3)nc2C#N)cc1,active: 25.1 µM,
S=c1[nH]nc(-c2cccnc2)o1,"inconclusive: 25.1 µM [inhibitor, single point]",
Cc1cccn2c(=O)c3cc(C(=O)N4CCN(c5ccccc5)CC4)n(C)c3nc12,inactive,
c1cncc(CNc2nc(-c3ccc4c(c3)OCO4)nc3ccccc23)c1,"inconclusive: 31.6 µM [inhibitor, single point]",
COc1ccc(-n2nnc3c(=O)n(CC(=O)N4CCCC4)cnc32)cc1,inactive,
CCc1nnc(NC(=O)CSc2nnc(CNc3ccc(Cl)cc3)o2)s1,inactive,
CCOC(=O)c1c(NC(=O)c2ccc(Cl)s2)sc(C)c1C,inactive,
CCOc1ccc(C(=O)N2CCCN(C(=O)c3ccc(OCC)cc3)CC2)cc1,"inconclusive: 39.8 µM [inhibitor, single point]",
O=C(Nc1ccccc1N1CCN(C(=O)c2ccc(Cl)cc2)CC1)c1cc2ccccc2o1,"inconclusive: 20 µM [inhibitor, partial curve]",
CCc1ccc2[nH]c(=O)c(CN(CCN(C)C)C(=O)Nc3ccccc3)cc2c1,inactive,
COc1cc(C2Nc3cccc4cccc(c34)N2)cc(OC)c1O,active: 1.58 µM,
Cc1ccc(-c2nc3cccnc3s2)cc1NC(=O)c1ccco1,"inconclusive: 31.6 µM [inhibitor, single point]",
COC(=O)c1c(NS(=O)(=O)c2cccs2)sc2c1CCCC2,"inconclusive: 20 µM [inhibitor, partial curve]",
c1ccn2c(c1)nc1c2nc2ccccn21,active: 7.94 µM,
Cc1[nH]n2c(=O)cc(C(C)C)nc2c1-c1ccccc1,"inconclusive: 31.6 µM [inhibitor, single point]",
CSc1nc2oc3c(c2c2nncn12)CC(C)(C)SC3,"inconclusive: 39.8 µM [inhibitor, single point]",
CCC1CCCN1Cn1cnc2c([nH]c3ccc(OC)cc32)c1=O (stereo not drawn),active: 25.1 µM,
CCOC(=O)COc1ccc2nsnc2c1Cl,"inconclusive: 31.6 µM [inhibitor, single point]",
